# Results: the supplement of paper PMC10338343
# ± gives the standard deviation. This is a selection; strong and weak results do not stand in their true shares.
# Test system: MIWI (PIWIL1) piRISC loaded with piRNA #1 (30 nt)
# Assay: pre-steady-state target cleavage rate (min^-1); MIWI and MILI are mouse PIWI proteins and EfPiwi is from a freshwater sponge; tags in brackets are library labels; higher = faster piRNA-guided slicing of the target
# Conditions: guide: piRNA #1 5'p-UGAGGUAGUAGGUUGUAUAGUAUCCAGAGG; auxiliary factor: 500 nM mouse GTSF1
# Procedure, shortened: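 Using HEPES–potassium acetate buffer at 33 °C, 1 nM active affinity-purified piRISC with a single synthetic guide was mixed with 0.1 nM transcribed, DNA-blocked target RNA library for 0–8 or 0–960 min, with or without 500 nM GTSF1 partner protein. Uncleaved targets were sequenced and normalised to depth and to weakly complementary targets, and three trials were pooled with k3 capped at 0.0001 min^-1. A burst-and-steady-state fit gave the pre-steady-state cleavage rate.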
row,Sequence,pre-steady-state target cleavage rate
1,GGAGACCUUACUAUUCAACCUACUACGUCA,0.678 ± 0.064
2,GGUCUGGAUACUAUACAAGCUACUACCUCA,1.17 ± 0.052
3,GGAGACGUUACUAUACAACCUACAACCUCA,0.539 ± 0.041
4,GGUCUGGAUCUAUACAACCUACUACCUCA,1.62 ± 0.1
5,GGACUGGAAACUAUACAACCUAGUACCUCA,0.393 ± 0.064
6,GCUCUGGAUACUAUACAAGCUAGUACCUCA,0.655 ± 0.044
7,GGAGUGGAUACUAUACUUGCUACUACCUCA,0.0421 ± 0.0077
8,GCACUGGAUACAAUACAACCUACUACCUCA,1.8 ± 0.1
9,GGAGACGAUACUAUACAACCUACUACCCA,0.362 ± 0.047
10,GGAGUGGAUACUAUACAACCAAGUACCUCA,0.0356 ± 0.0049
11,GCUCUGGAUACUAUACAACCUGACUACCUCA,0.00419 ± 0.0023
12,GGAGAGGAUACUAUACAACCUACGACCUCA,0.714 ± 0.055
13,CCUCUGGAAACUAAACAACCUACUACCUCA,2 ± 0.13
14,GGAGAGGAUACUAUACAACCUAGAACCUCA,0.0166 ± 0.0042
15,GCUCUGGUUACUAUACAACCUUCUACCUCA,0.701 ± 0.037
16,GGAGACCUAACUAUACAACCUAGUACCUCA,0.299 ± 0.051
17,GGAGACCAUAGUAUAGAACCUACUACCUCA,0.506 ± 0.057
18,GCUCUGGAUAACUAUACAACCUACUACCUCA,1.17 ± 0.075
19,GCUCUGGAUACUAUACUACCUACUACCUGA,0.928 ± 0.12
20,GGAGACGAUACAAUACAACCAACUACCUCA,0.0918 ± 0.008

row,Sequence,pre-steady-state target cleavage rate
1,GGAGACCUUACUAAACAACCUACUACCUCA,0.834 ± 0.074
2,CCUCUGGAUACUAUACAACCUUGUACCUCA,0.0534 ± 0.012
3,GGUCUGGAUAGUAUACAACCUACUACGUCA,0.583 ± 0.055
4,GGAGAGGAUACUAUACAACCUUACUACCUCA,0.00535 ± 0.0028
5,GGAGACGAUACUAUACAACCUUCUUCCUCA,0.252 ± 0.043
6,GGAGACCUAACUAUACAACCUACUACCUUA,1.08 ± 0.12
7,GGAGACCUUACUAUACAACCUACUACCAGA,0.712 ± 0.058
8,GGAGACGAUCACUAUACAACCUACUACCUCA,1.19 ± 0.1
9,GGUCUGGAUACUAUACAACCUUCUACGUCA,0.16 ± 0.026
10,GGACUGGAUACUAUACAACCUACUGACCUCA,0.486 ± 0.053
11,CCUCUGGAUUCUAUACAACCUACUUCCUCA,0.421 ± 0.032
12,GCACUGGAUACUAUACAAGCUACUACCUCA,1.32 ± 0.064
13,GCUCUGGAUACUAUACUAGCUACUACCUCA,0.797 ± 0.06
14,GCUCUGGAUACUAUACAACGUAGUACCUCA,0.474 ± 0.038
15,GGAGAGGAUACUAUACAACCUACUACCCA,0.26 ± 0.034
16,GGUCUGGAUACUAUACAACCUACUUACCUCA,1.23 ± 0.084
17,GGACUGGAUACUAUACAACCUACUACCUACA,0.652 ± 0.064
18,GGAGACCUAACUAUUCAACGUACUACCUCA,0.0402 ± 0.014
19,GGAGACGAUAGUAUACAACCAACUACCUCA,0.135 ± 0.016
20,GGUCUGGAUACUAUACAUGCUACUACCUCA,0.824 ± 0.05
